Measured values: PubChem BioAssay AID995 (National Center for Advancing Translational Sciences (NCATS), 2007)
Screen size: about 72,000 compounds; about 710 (0.99%) were called active. The inconclusive results got no clear call from the source; some entries with a clear call stand among them for comparison. The call rests on the fitted dose curve; in most records, active means well fitted inhibition curve with a large enough effect; inconclusive means small, poorly fitted or top-dose-only effect; inactive means no such curve, though single readings can be large or run the other way. No potency is given beside an inconclusive call; the fits are too rough.

Experiment: qHTS Assay for Inhibitors of the ERK Signaling Pathway using a Homogeneous Screening Assay; further: nearly all actives have a fitted effect of over 55% in size
Conditions: HEK293-V1b, vasopressin-stimulated pERK AlphaScreen; activity, negative = inhibition: at 57.5 µM (top of the series) unless noted
Summary of the method: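 Phosphorylated ERK1/2 detected via AlphaScreen bead proximity in lysates of V1b-expressing HEK293 cells given 25 nM vasopressin for 5 min after 30 min compound exposure (37 °C). AC50 from Hill equation; basal DMSO 0%, vasopressin 100%.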
On the % scale 0 is the no-effect control and ±100 the full control effect; potency means the concentration at half of the fitted maximal effect; tags describe the fitted curve by direction and shape.

Row | Compound | Potency | activity, negative = inhibition
1 | Cn1c(=O)n(Cc2ccccc2)c(=O)c2c1nc1n2CCS1 | inconclusive [inhibitor, single point] | 
2 | CCCn1c(CNc2ccccc2O)nc2ccccc21 | inconclusive [inhibitor, single point] | 
3 | O=S(=O)(c1cccc2c(I)cccc12)N1CCCNCC1 |  | inactive: 13.6%
4 | c1ccc(CNc2ncncc2-c2ccc3c(c2)OCO3)cc1 | inconclusive [inhibitor, single point] | 
5 | Cc1ccc(C=Nc2ccc(N(C)C)cc2)o1 | inconclusive [inhibitor, single point] | 
6 | COC(=O)c1cc2oc3ccccc3c2n1Cc1ccccn1 | inconclusive [inhibitor, partial curve] | 
7 | COc1ccccc1Nc1nc(C)cc(=O)[nH]1 |  | inactive: 10.1%
8 | O=C(COC(=O)c1cccs1)NCc1ccc2c(c1)OCO2 |  | inactive: 3.71%
9 | Cc1cc(=O)oc2cc(OCC(O)CN3CCN(c4ccccc4)CC3)ccc12 (stereo not drawn) | inconclusive [inhibitor, single point] | 
10 | Cc1cccc(CNc2cc(-c3cccc(NS(C)(=O)=O)c3)ncn2)c1 | inconclusive [inhibitor, single point] | 
11 | COc1cc(Cl)c(C)cc1NC(=O)CSc1nc2ccccc2o1 |  | inactive: 11.2%
12 | C=CCn1c(C)cc(C(=O)CSc2nc3ccccc3c(=O)[nH]2)c1C | active: 20 µM | 
13 | C=CCN1C(=O)C(O)(CC(=O)c2ccc(N)cc2)c2ccccc21 (stereo not drawn) |  | inactive: -8.49%
14 | COc1ccc(Br)cc1-c1nc(C)c(C(C)=O)n1O | inconclusive [inhibitor, full curve, poor fit] | 
15 | COc1ccc(COn2c(=O)c(C)[n+]([O-])c3ccccc32)cc1OC | inconclusive [inhibitor, single point] | 
16 | O=c1c(O)c(-c2cccs2)oc2ccccc12 | inconclusive [inhibitor, partial curve] | 
17 | CCCCCCCCCCCCOS(=O)(=O)O | inconclusive [inhibitor, single point] | 
18 | Oc1c(C(Nc2ccccn2)c2ccccn2)ccc2cccnc12 (stereo not drawn) | inconclusive [inhibitor, partial curve] | 
19 | O=C(Nc1cccc(-c2nc3ccccc3[nH]2)c1)c1cccc(NC(=O)c2ccco2)c1 | inconclusive [inhibitor, partial curve] | 
20 | Brc1cnc(N2CCCC2)nc1N1CCOCC1 | inconclusive [inhibitor, full curve] | 
21 | CCCCNc1nc(C)nc2c1nc(-c1ccccc1)n2CC1CCN(C)CC1 | inconclusive [inhibitor, single point] | 
22 | COCCn1c(=S)[nH]c2cc(C(=O)N3CCc4ccccc43)ccc2c1=O | inconclusive [inhibitor, partial curve] | 
23 | COc1ccc(C(=O)c2no[n+]([O-])c2C(=O)c2ccc(OC)cc2)cc1 | inconclusive [inhibitor, single point] | 

Row | Compound | Potency | activity, negative = inhibition
24 | Cc1oc(-c2ccccc2F)nc1CS(=O)(=O)CC(=O)N1CCc2ccccc21 | inconclusive [inhibitor, single point] | 
25 | O=C(O)CCc1ccc(-c2ccc(Br)cc2)o1 |  | inactive: -7.81%
26 | CCC(=O)N1CCc2cc(S(=O)(=O)NCCC(=O)N3CCN(Cc4ccccc4)CC3)ccc21 | inconclusive [inhibitor, partial curve] | 
27 | COc1ccc(-n2c(=O)c(C)nc3cnc(Nc4cccc(OC)c4)nc32)cc1 | inconclusive [inhibitor, partial curve] | 
28 | C[C@@H](c1ccccc1)N1C(=O)[C@H]2[C@H]3[C@H](O)[C@H](O)C/C(=N/OCc4ccccc4)[C@H]3CC[C@@H]2C1=O |  | inactive: 8.7% [at 11.5 µM]
29 | COc1ccc(-n2nnnc2SCC(=O)c2cccc(OC)c2)cc1 | inconclusive [inhibitor, single point] | 
30 | N#CC1=C(N)N(c2ccccc2)C2=C(C(=O)CCC2)C1c1cccs1 (stereo not drawn) | inconclusive [inhibitor, partial curve] | 
31 | COc1cccc(Cn2c(=O)c(C)nc3cnc(N4CCN(C)CC4)nc32)c1 |  | inactive: -10.8%
32 | CCCC(c1nnnn1Cc1ccc(OC)cc1)N1CCN(c2ccccc2OC)CC1 (stereo not drawn) |  | inactive: 5.62%
33 | Cc1ccc(S(=O)(=O)N(C)Cc2ccc(-c3nnco3)cc2)cc1 |  | inactive: 11.9%
34 | C=CCn1c(SCC(=O)Nc2sc(C)c(C)c2C(=O)OCC)nnc1-c1sc(N)nc1C | inconclusive [inhibitor, partial curve] | 
35 | C=CCN1C(=O)C2(C(C#N)=C(N)Oc3n[nH]c(CCC)c32)c2ccccc21 (stereo not drawn) | inconclusive [inhibitor, partial curve] | 
36 | Cc1noc(C)c1COC(=O)COc1ccc2c(C)cc(=O)oc2c1 | inconclusive [inhibitor, single point] | 
37 | O=C1c2ccccc2-c2nccnc21 |  | inactive: -15.5%
38 | CCCCCOC(=O)CSc1nc2c(c(=O)[nH]c(=O)n2C)n1CCc1ccccc1 | inconclusive [inhibitor, single point] | 
39 | CC(C)(C)N1C(=O)c2ccc(C(=O)Nc3nccs3)cc2C1=O | inconclusive [inhibitor, single point] | 
40 | COc1ccc(NC(=O)c2ccc3c(=O)n(Cc4ccco4)c(=S)[nH]c3c2)c(OC)c1 | inconclusive [inhibitor, full curve, poor fit] | 
41 | COc1ccc(CCn2c(N)cc(=O)[nH]c2=S)cc1OC | inconclusive [inhibitor, partial curve] | 
42 | Nc1cc(N)nc(SCC(=O)Nc2ccc3c(c2)OCCCO3)n1 | inconclusive [inhibitor, single point] | 
43 | C[C@@H](C(=O)NCc1nc2ccccc2[nH]1)[C@@H]1C[C@@]1(C)[C@@H](NC(=O)OCc1ccccc1)c1ccccc1 | inconclusive [inhibitor, partial curve] | 
44 | CCOC(=O)N1CCN(C(=O)c2ccc3c(=O)n(Cc4ccccc4)c(=S)[nH]c3c2)CC1 | inconclusive [inhibitor, partial curve] | 
45 | CCOc1cc2[nH]c(=O)n(Cc3ccc(C(=O)NCCOC)cc3)c(=O)c2cc1OCC | inconclusive [inhibitor, partial curve] | 
46 | Nc1cc2c(nc3c4ccccc4c(N)cc3[n+]2-c2cccc3ccccc23)c2ccccc12 (tested in a mixture with another compound) | inconclusive [inhibitor, partial curve] | 

Row | Compound | Potency | activity, negative = inhibition
47 | CCn1c(C)nc2cc(C(=O)OCCC(F)(F)F)ccc21 |  | inactive: 24.4%
48 | Cn1c(C(=O)NCCCN2CCN(c3ccccc3F)CC2)cc2c(=O)n(C)c3ccccc3c21 |  | inactive: 1.14%
49 | COc1cccc(C(C(=O)NCc2ccco2)N(C(=O)Cn2nnc3ccccc32)C2CC2)c1OC (stereo not drawn) | inconclusive [inhibitor, partial curve] | 
50 | Cn1c(=O)c(-c2ccc(Cl)cc2)nc2cncnc21 |  | inactive: -5.55%
51 | COc1ccc(CCNC(=O)COC(=O)c2cnc(C)cn2)cc1OC | inconclusive [inhibitor, single point] | 
52 | OCCN1CCN(c2nc(-c3ccccc3)nc3c2oc2ccccc23)CC1 | inconclusive [inhibitor, partial curve, poor fit] | 
53 | Nc1ccc(-c2nc3ccc(-c4nc5ccc(N)cc5[nH]4)cc3[nH]2)cc1 | active: 12.6 µM | 
54 | O=c1c(-c2ccc(Cl)cc2)nc2cnc(N3CCOCC3)nc2n1C1CC1 |  | inactive: -3.74%
55 | COc1ccccc1C(c1nnnn1C(C)(C)C)N1CCCCCC1 (stereo not drawn) |  | inactive: 17.7%
56 | OCc1nc2ccccc2n1CCCOc1ccc(Br)cc1 | inconclusive [inhibitor, single point] | 
57 | Cc1cc(Cl)cc2c1NC(=O)[C@]21[C@@H]2C(=O)N(Cc3ccccc3)C(=O)[C@@H]2[C@@H]2CCCN21 | inconclusive [inhibitor, partial curve] | 
58 | Cn1c(=O)c2c(nc(N3CCOCC3)n2CC(=O)C23CC4CC(CC(C4)C2)C3)n(C)c1=O | inconclusive [inhibitor, partial curve] | 
59 | O=C(OC[C@@H](O)CO)c1ccccc1Nc1ccnc2cc(Cl)ccc12 | inconclusive [inhibitor, partial curve] | 
60 | COCCCn1c(SCC(=O)N2CC(=O)Nc3ccccc32)nnc1-c1ccoc1C | inconclusive [inhibitor, single point] | 
61 | COCc1nn2c(N)c(C#N)cnc2c1-c1ccccc1 | inconclusive [inhibitor, partial curve] | 
62 | O=S(=O)(Nc1cnc2ccccc2c1)N1CCCCCC1 | inconclusive [inhibitor, single point] | 
63 | NCCCCNCCCN | inactive | 
64 | CCOc1ccc(C2N(c3ccc(F)cc3)C(=O)C3CCCN32)cc1 (stereo not drawn) |  | inactive: -19.3%
65 | CC(=O)Nc1sc(C)c(C)c1C(=O)OC1CCOC1=O (stereo not drawn) | inconclusive [inhibitor, single point] | 
66 | CC(=O)N1[C@H](Cc2ccccc2)C=C[C@]1(C)C(=O)NCc1cc(F)cc(C(F)(F)F)c1 |  | inactive: 20.9%
67 | CCn1c(COc2cccc(C)c2)nnc1SCC(=O)Nc1cccc(C(=O)O)c1 | inconclusive [inhibitor, partial curve, poor fit] | 
68 | Cc1ccccc1-c1ccc2ncnc(N3CCOCC3)c2c1 | inconclusive [inhibitor, single point] | 
